Measurements as given in the supplement of paper PMC4723716.
Whole data set: some 3,600 compounds, median “viability index relative to DMSO control” near 0.81, cut for the lowest 2% near 0.13. The list shows a part of the results.

Tested on: Plasmodium falciparum NF54 stage V gametocytes
Assay: viability index relative to DMSO control (fraction); higher = less gametocyte killing
Details: 1.25 µM, incubation time: 72 h
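Further: 384-well serum-free SaLSSA: MitoTracker Red CMXRos staining with saponin lysis, high-content imaging, treated-well particle count divided by plate-mean count of DMSO wells.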

SMILES	viability index
O=C(Nc1cc(Cl)cc(Cl)c1)Nc1ccccc1C(=O)NCC1CC1	0.946
C=CCOc1ccccc1CN1CCN(c2ccccn2)CC1	0.771
CCCOC(=O)C1=C(C)NC2=C(C(=O)CC(c3ccc(OC)c(OC)c3)C2)C1c1cccc(Br)c1 (stereo unspecified)	0.83
N#CC(=Cc1cn(Cc2ccc(Cl)cc2Cl)c2ccccc12)c1nc2ccccc2[nH]1	0.638
OCC[n+]1ccc(C=Cc2c[nH]c3ccccc23)cc1	0.741
O=c1c([N+](=O)[O-])cccn1Cc1ccc(F)cc1Cl	1.15
COc1cc(NCCCC(C)Nc2ccnc3cc4ccccc4cc23)c2ncccc2c1 (stereo unspecified)	0.638
COc1ccc(C2C(C(=O)Nc3cc(Cl)c(OC)cc3OC)c3ccccc3C(=O)N2C)cc1 (stereo unspecified)	0.273
Cc1cccc(N2C(=O)C3C(C2=O)C2(c4ccccc4)C(=O)C3(c3ccccc3)C(c3ccccc3)=C2c2ccccc2)c1 (stereo unspecified)	0.943
Cc1ccc(Cn2c(N3CCC(C(=O)NCc4ccccn4)CC3)nc3ccccc32)cc1	0.614
CC1CC(C)CN(CCCNc2ccc(C(=O)Nc3ccc(C(F)(F)F)cc3)cc2[N+](=O)[O-])C1 (stereo unspecified)	1.06
FC(F)(F)c1cccc(-c2cncc(N3CCN(c4ccccn4)CC3)n2)c1	0.494
CC1=C(C(=O)Nc2ccccn2)C(c2ccc(O)cc2)n2ncnc2N1 (stereo unspecified)	1.13
O=C(COc1ccccc1)NC(c1ccc([N+](=O)[O-])cc1)c1cc(Cl)c2cccnc2c1O (stereo unspecified)	0.606
CCCc1c(C(=O)OCC)c2cc(O)ccc2n1-c1ccc(OC)cc1	0.731
COCCNC(=O)CN1C(=O)CC(C)(C)Sc2ccccc21	0.909
O=C(NC(=S)Nc1ccc([N+](=O)[O-])cc1Cl)c1ccco1	0.86
CC(C)=CCCC(C)=CCCC(C)NCCN1CCNCC1 (stereo unspecified)	0.135
COc1ccc(NC(=O)CCn2c(=S)oc3ccccc32)c([N+](=O)[O-])c1	1.17

SMILES	viability index
CCOc1ccc(S(=O)(=O)N=C2C=C(Nc3ccc(O)cc3)C(=O)c3ccccc32)cc1	0.386
CCOC(=O)N1CCC(NC(=O)CSCc2nc(-c3cccc(OC)c3)oc2C)CC1	0.964
CC(=O)C(=NNc1cc(C(F)(F)F)cc(C(F)(F)F)c1)C(C)=O	0.739
CCCOc1ccc(NC(=O)c2ccco2)cc1	0.939
CCCN(CCC)CC(O)COc1ccccc1C(=O)Nc1ccccc1 (stereo unspecified)	0.65
Nc1cc(OC(=O)c2ccccc2)nn1S(=O)(=O)c1ccc(Cl)cc1	0.964
CCc1noc(C)c1C(=O)NCCN1Cc2ccccc2OC(c2ccsc2)C1 (stereo unspecified)	1.47
Cc1cc(N2CCCC2)nc2ccc(NC(=S)NCCCN3CCc4ccccc4C3)cc12	1.32
Cc1ccc(-c2nnc(NCc3ccccc3)c3ccccc23)cc1S(=O)(=O)NCC1CCCO1 (stereo unspecified)	0.792
CC(C)(C)Cc1ccc(OCCCC(=O)Nc2ccc(Cl)c(N)c2)c(CC(C)(C)C)c1	0.947
Cc1ccc(-c2c[n+](-c3ccccc3)c3n2CCCS3)cc1	0.925
c1ccc2[nH]c(CN(Cc3nc4ccccc4[nH]3)Cc3nc4ccccc4[nH]3)nc2c1	0.949
COc1cccc(-c2ccc(O)c(CN3CCC(C)CC3)c2)n1	0.885
Cc1nc([P+](c2ccccc2)(c2ccccc2)c2ccccc2)c(N2CCCCC2)o1	0.22
CCOc1ccc(CCNC(=O)c2cccs2)cc1OCC	0.851
CCOc1ccc(N(C(=O)C2COc3ccccc3O2)C(C(=O)NC2CCCCC2)c2cn(C)nc2C)cc1 (stereo unspecified)	0.779
COc1ccc(-c2noc(CNC(=O)c3cccc(I)c3)n2)cc1	1.03
COc1cc(N)c(Cl)cc1C(=O)NCC1CCN(c2nc(C)cc(C)n2)CC1	0.826
COc1cc(C=NNc2nc3ccccc3[nH]2)cc(OC)c1OC	1.04

SMILES	viability index
COc1ccc(-c2c[n+](CC(=O)c3ccccc3Cl)c3n2CCC3)cc1	1.07
COc1cccc2c1OCC(C(=O)Nc1ccc(C)cc1)=C2	0.822
COc1cc(NC(=O)C=Cc2ccccc2Cl)cc(OC)c1OC	0.444
CCOC(=O)c1cnc2c(Cl)cccc2c1Nc1cccc(C(C)=O)c1	0.936
N#Cc1c(N)nc2sc(C(=O)Nc3ccc(Br)cc3)c(N)c2c1-c1ccccc1	0.496
CCOCCCNC(=O)C1CCCN(S(=O)(=O)c2ccc(C)cc2)C1 (stereo unspecified)	0.971
Cc1ccccc1Cn1c(N2CCC(C(=O)NCc3ccccn3)CC2)nc2ccccc21	0.972
COc1cc(-c2nc(-c3ccccc3)c(-c3cccc(C(F)(F)F)c3)[nH]2)cc(OC)c1O	0.815
CC(=O)Nc1ccc(S(=O)(=O)N(C)CC(=O)NN=Cc2ccncc2)cc1	0.878
CCOC(=O)c1c(C)n(-c2ccccc2)c2ccc(OC(=O)c3ccccc3NC(=O)CC)cc12	1.14
COCCN1C(=O)c2[nH]nc(-c3ccccc3O)c2C1c1ccc(SC)cc1 (stereo unspecified)	1.33
COC(=O)C1=CN(Cc2ccc(OC)cc2)C=C(C(=O)OC)C1c1cccs1	0.734
CCCCNC(=O)N1CCN(C(=O)C(Cc2c[nH]c3ccccc23)NC(=O)Nc2cccc(C#N)c2)CC1C (stereo unspecified)	0.613
O=C(Nc1cccc(C(F)(F)F)c1)c1ccc(-c2cccs2)cc1	0.859
Cc1c[nH]c(CCNCc2ccc(OCC(O)CN(C)Cc3ccccc3)cc2)n1 (stereo unspecified)	0.923
COC(=O)[C@@H]1C[C@H](NC(=O)c2[nH]c3ccc(Cl)cc3c2-c2ccccc2)CN1Cc1cc(OC)cc(OC)c1	1.31
O=C(Nc1ccc(-c2nnc(-c3ccc(NC(=O)c4ccccc4[N+](=O)[O-])cc3)o2)cc1)c1ccccc1[N+](=O)[O-]	0.756
O=C(CCn1c(=O)[nH]c2ccccc21)NCC1Cc2cccc(-c3ccncc3)c2O1 (stereo unspecified)	0.894
